Experimental findings from PubChem BioAssay AID1508624 (National Center for Advancing Translational Sciences (NCATS), 2021) are described below.

The whole screen tested about 48,000 compounds, of which about 120 (0.25%) were called active. Inconclusive results (about 4%) are left out. Calls come from the whole dose curve; as a rule, active = well fitted activation curve with a large enough effect; inconclusive = small, poorly fitted or top-dose-only effect, or another doubt; inactive = no such curve, though single readings can be large or run the other way. The list shows a part of the results.

A short description of this assay: Primary qHTS for Identification of Small Molecule Activators of Huntingtin-Antisense Promoter Activity. Note: nearly all actives have a fitted effect of over 55% in size. As to conditions: HEK293 HTT-AS promoter firefly luciferase reporter, 24 h; series mostly up to 57.5 µM; activity change, positive = activation: at the top concentration. The source says:
Assay Provider: Russell L. Margolis M.D.
Department Neurology, Johns Hopkins University School of Medicine, Baltimore, MD
Huntington's Disease (HD) is a neurodegenerative disorder caused by a CAG repeat expansion in exon 1 of huntingtin (HTT). While there are currently no disease-modifying treatments for HD, recent efforts have focused on development of nucleotide-based therapeutics to lower HTT expression. As an alternative to siRNA or oligonucleotide methods, we hypothesized that suppression of HTT expression might be accomplished by small molecules that either (1) directly decrease HTT expression by suppressing HTT promoter activity or (2) indirectly decrease HTT expression by increasing the promoter activity of HTT-AS, the gene antisense to HTT that appears to inhibit expression of HTT.
We developed and employed a high throughput screen for modifiers of HTT and HTT-AS promoter activity using luminescent reporter HEK293 cells; of the 52,041 compounds tested, we identified 898 replicable hits. We used a rigorous stepwise approach to assess compound toxicity and the capacity of the compounds to specifically lower huntingtin protein in 5 different cell lines, including HEK293 cells, HD lymphoblastoid cells, mouse primary neurons, HD iPSCs differentiated into cortical-like neurons, and HD hESCs. We found no compounds which were able to lower huntingtin without lowering cell viability in all assays, though the potential efficacy of a few compounds at non-toxic doses could not be excluded.
SEQUENCE No. (1, 2, 3, etc.); […] (e.g., Cells, Incubation, Reagent, etc.); VALUE and DESCRIPTION.
1; Reagent; 4 uL; 2,500 Hek293 luciferase reporter cells per wells
3; Compound; 23 nL; Control inhibitor / compound library
5; Reagent; 2.5 uL; Firefly Luc reagent; Dual-Glo Luciferase Reporter Assay System (Promega)
6; Time; 10 min; room temperature incubation
7; Detection; Luminescence; FLuc
NOTES (numbers refer to sequence above)
1; High-throughput screening, measuring luminescence from a Hek293 luciferase reporter, was performed in 1,536 well white-walled tissue-culture treated plates. 2,500 cells were plated in 4 µL of Opti-MEM per well using a Multidrop Combi Reagent Dispenser (ThermoFisher).
2; Assay plates were cultured for 24 hours.
3; Control inhibitor (PTC124; final concentration of 50 uM) and compound library (at final concentrations of 460 nM - 57.5 uM) were added to the assay plate using the Kalypsis Pintool Robotic System equipped with 1536 pinheads.
4; Cells were then incubated for 24 hours at 37 degrees C prior to luminescence measurements.
5; In all cases, luminescence was measured using the Dual-Glo Luciferase Reporter Assay System (Promega) following the manufacturer's instructions.
6; Room temperature incubation.
7; Luminescence signal was obtained using the PerkinElmer ViewLux plate reader. Results were normalized to vehicle control (0% activity) and zero RLU (-100% activity).
(In general: Quantitative high-throughput screening tests each substance at several concentrations.)
Consider `CCOc1ccc(C2C(C(=O)OC)=C(C)NC3=C2C(=O)c2ccccc23)cc1OC` (centres undefined), for which the “activity change, positive = activation” value was inactive: -33.9%. For `CCc1ccc(NC(=O)C2CCCN(c3nn4cc(-c5ccc(OC)cc5)nc4s3)C2)cc1` (centres undefined) the value was inactive: -24.1%; for `O=C(Nc1ccc(F)cc1Cl)C1CCN(c2ncnc3c2nc2n3CCCCC2)CC1`, inactive: -1.96%. Next, `CN(C1CCCCC1)S(=O)(=O)c1ccc2c(c1)c(=O)c(C(=O)NCc1ccccc1Cl)cn2C`: inactive: 8.18% [at 11.5 µM, percent change from vehicle, -100% = no light]; `c1ccc(C(O[C@H]2CCCN(CCc3ccc4c(c3)OCO4)C2)c2ccccc2)cc1`: inactive: -4.65%; `O=C(NCC(c1ccc2c(c1)OCO2)N1CCN(c2ccc(F)cc2)CC1)c1cccc([N+](=O)[O-])c1` (centres undefined): inactive: -39.5%. As to `Cc1ccc2onc(CNC(=O)Nc3ccccc3C#N)c2c1`, the “activity change, positive = activation” value was inactive: -13.6%. Regarding `COc1cccc(CNC(=O)CCc2c(C)nc3c(c2C)c(=O)n(C)c(=O)n3C)c1`, the “activity change, positive = activation” value was inactive: -0.496%. `CCc1ccccc1NC(=O)CSc1ncccc1C(=O)O`: the “activity change, positive = activation” value was inactive: 8.97%. For `COc1ccc(Nc2ncnc3c2c(-c2ccccc2)cn3-c2ccc(C)c(Cl)c2)cc1OC`, the “activity change, positive = activation” value was inactive: 4.94%. `Cc1nn(C)c2c1c(C(F)(F)F)cc(=O)n2C(C)C(=O)NCCc1ccc(Cl)cc1` (centres undefined): the “activity change, positive = activation” value is inactive: -21.7%.

Consider `COCCOC(=O)c1c(C)oc2c1cc(NS(=O)(=O)c1ccc(Cl)c(C)c1)c1ccccc12`, for which the “activity change, positive = activation” value is inactive: -30.7%. Next, `Cc1ccc(Oc2coc3cc(OCC(=O)NC4CCCCC4)ccc3c2=O)cc1`: inactive: -6.16%; `N#Cc1ccc(C(=O)Nc2ccccc2-c2nc3ccccc3s2)c(F)c1`: inactive: -5.58%. For `COc1ccc(OCc2ccc(-c3nc(C#N)c(NCc4ccccc4)o3)o2)cc1`, the “activity change, positive = activation” value is inactive: 6.06%. On to `CNS(=O)(=O)c1ccc(NC(=O)c2cnn3c(C(F)F)cc(-c4ccccc4)nc23)cc1`, for which the “activity change, positive = activation” value was inactive: -9.93%. Next, `CCOC(=O)c1cnc2c(Cl)c(Cl)ccc2c1NCCN1CCOCC1`: inactive: -8.67%; `CCOC(=O)Cc1ccc(NC(=O)n2ncc3cc(Cl)ccc32)cc1`: inactive: -91.3%; `O=c1c(-c2ccc(O)cc2)coc2cc(O[C@@H]3O[C@H](CO)[C@H](O)[C@H](O)[C@H]3O)ccc12`: inactive: 20.2%. Next, `COc1cccc(CNC(=O)c2ccc3c(c2)N(C)C(=O)C2CCCCN32)c1` (centres undefined): inactive: -8.95%; `COc1ccc(-c2nc(SCC(=O)Nc3ccc4c(c3)OCO4)c(-c3ccccc3)[nH]2)cc1`: inactive: -35.7%; `CCc1ccc(NC(=O)C2CCC(CNS(=O)(=O)c3cccs3)CC2)cc1` (centres undefined): inactive: -8.67%. For `Cc1ccccc1NC(=O)c1c(NC(=O)c2ccncc2)sc2c1CCC(C(C)(C)C)C2` (centres undefined) the value was inactive: 11.3% [at 11.5 µM, percent change from vehicle, -100% = no light]; for `COc1ccccc1NC(=O)C1=C(C)Nc2nc(-c3ccco3)nn2C1c1ccccc1` (centres undefined), inactive: -14.1%. On to `CC1CCN(c2cc3c(cc2F)c(=O)c(S(=O)(=O)c2ccc(Cl)cc2)cn3C)CC1`, for which the “activity change, positive = activation” value was inactive: -13.3%. Take `COc1ccc(Nc2nc3c(S(=O)(=O)c4ccc(Br)cc4)nnn3c3ccsc23)c(OC)c1`: the “activity change, positive = activation” value was inactive: -10.4%. Next, `CCOC(=O)c1c(NC(=O)c2cc(-c3ccc(Cl)cc3)on2)sc2c1CCCC2`: inactive: -8.21%; `CNS(=O)(=O)c1cc(-c2nn3c(C)nnc3c3ccccc23)ccc1C`: inactive: 5.21%.

On to `Cc1ccc(CNc2oc(-c3ccc(COc4ccc(Cl)cc4)o3)nc2C#N)cc1`, for which the “activity change, positive = activation” value is inactive: -51%.
